From PubChem BioAssay AID1477 (National Center for Advancing Translational Sciences (NCATS), 2009)
The whole screen tested about 230,000 compounds, of which fewer than 10 were called active. The shares of active, inactive and inconclusive entries below differ from those in the screen. Calls follow the shape of the dose curve; as a rule, active = well fitted curve in the direction sought with a large enough effect; inconclusive = small, poorly fitted or top-dose-only effect, or effect the other way, or another doubt; inactive = no such curve, though single readings can be large or run the other way. Potencies of inconclusive entries are left out as doubtful fits.

Molecular target: Runt-related transcription factor 1 (Homo sapiens) + Core-binding factor subunit beta (Homo sapiens) (UniProt Q01196+Q13951)
Chain of UniProt Q01196 (Q01196 whole entry, looked up): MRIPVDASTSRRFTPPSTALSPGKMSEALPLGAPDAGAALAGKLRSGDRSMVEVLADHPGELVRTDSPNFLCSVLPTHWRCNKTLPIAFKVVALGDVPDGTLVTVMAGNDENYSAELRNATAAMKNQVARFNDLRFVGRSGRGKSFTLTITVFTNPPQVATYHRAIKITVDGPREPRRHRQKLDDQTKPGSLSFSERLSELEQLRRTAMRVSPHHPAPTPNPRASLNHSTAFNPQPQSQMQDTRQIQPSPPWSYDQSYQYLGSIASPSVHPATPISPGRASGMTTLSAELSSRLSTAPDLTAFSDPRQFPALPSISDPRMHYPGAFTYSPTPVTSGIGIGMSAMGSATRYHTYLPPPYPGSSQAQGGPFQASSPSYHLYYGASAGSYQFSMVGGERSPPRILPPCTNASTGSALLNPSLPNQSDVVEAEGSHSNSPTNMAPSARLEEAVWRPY
Chain of UniProt Q01196 (Q13951 whole entry, looked up): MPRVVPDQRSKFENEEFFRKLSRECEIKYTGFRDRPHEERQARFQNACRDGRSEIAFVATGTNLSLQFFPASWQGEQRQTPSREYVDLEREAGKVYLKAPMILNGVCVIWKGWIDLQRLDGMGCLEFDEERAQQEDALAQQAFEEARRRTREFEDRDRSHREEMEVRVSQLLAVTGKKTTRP
Assay: qHTS Assay for Compounds Blocking the Interaction Between CBF-beta and RUNX1 for the Treatment of Acute Myeloid Leukemia
Details: AlphaScreen CBFb-His/RUNX1-biotin binding, biochemical; series mostly up to 59.8 µM
Outline: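 Interaction loss through any mechanism counts as activity. Pre-formed complex of His-CBF-beta and biotin-RUNX1 (30 nM apiece) is incubated with compound 15 min, then with 50 ng nickel and 50 ng streptavidin beads for 90 min before AlphaScreen detection.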

| Compound | Potency |
| --- | --- |
| COC(=O)c1cc(C#N)c(SCc2ccccc2)nc1C | inconclusive [activator, single point] |
| CCCCN1C(=S)NC[C@@H]1c1ccccc1 | inactive |
| COc1ccccc1-n1cnc2cc(C(=O)NCCCN3CCOCC3)ccc21 | inactive |
| CCOC(=O)c1cc(C#N)c(N2CCOCC2)nc1-c1ccccc1 | inconclusive [activator, partial curve, poor fit] |
| Clc1ccc(Cn2nnc(-c3ccccc3)n2)cc1 | inactive |
| COc1ccc(/C(CC2(O)C(=O)Nc3ccccc32)=N\O)cc1 (stereo unspecified) | inconclusive [activator, single point] |
| CS(=O)(=O)c1ccc(C(=O)Nc2ccc(N3CCCC3)cc2)c(Cl)c1 | inconclusive [inhibitor, single point] |
| CC1CCCN(c2ccc(C(=O)NCc3ccco3)cc2[N+](=O)[O-])C1 (stereo unspecified) | inconclusive [inhibitor, single point] |
| CSCc1nnc(NC(=O)c2ccc(S(=O)(=O)N(C)C)cc2)o1 | inconclusive [inhibitor, single point] |
| Cc1ccc(NCc2ccc(O)c3ncccc23)cc1 | inactive |
| O=C(Nc1ccccc1Cl)c1csc(-c2cccnc2)n1 | inconclusive [inhibitor, single point] |
| COc1ccc(N=Cc2nc(-c3ccco3)oc2O)cc1 | inactive |
| O=C(c1ccccc1)c1coc2c1C(=O)c1ccccc1C2=O | inconclusive [inhibitor, partial curve] |
| CN(Cc1cc2ccccc2[nH]c1=O)C(=O)c1cccs1 | inconclusive [activator, partial curve, poor fit] |
| Nc1cccc2[nH]c(C(F)(F)F)nc12 | inconclusive [inhibitor, single point] |
| CCC(C)NS(=O)(=O)c1ccc(NS(=O)(=O)c2ccc(F)cc2)cc1 (stereo unspecified) | inactive |
| CC(C)n1c(/C=C/c2ccccc2)nc2ccccc21 | inconclusive [activator, partial curve] |
| Cc1cc(-c2ccccc2)n(-c2cc(N/N=C/c3ccccc3O)ncn2)n1 | inconclusive [inhibitor, partial curve] |
| CCN1CCN(Cc2ccc(NC(=O)c3cc(NC(=O)c4cncc(-c5ccc(C#N)cc5)c4)cc(OC)c3)cc2C(F)(F)F)CC1 | inconclusive [activator, single point] |
| CN(C(=S)Nc1ccc(SC(F)F)cc1)c1ccc(O)cc1 | inactive |
| Fc1ccc(Br)cc1C1C=C(c2ccc(Br)s2)Nc2ncnn21 (stereo unspecified) | inactive |
| Cc1ccnc(SCC(=O)c2ccc(Br)cc2)c1C#N | inconclusive [activator, single point] |
| O=C1c2ccccc2C(=O)N1CCCCN(C(=O)c1cc([N+](=O)[O-])cc([N+](=O)[O-])c1)c1ccc(Cl)cc1 | inconclusive [inhibitor, partial curve] |
| Cc1cccc(-n2cnc3cc(C(=O)N4CCCCC4)ccc32)c1 | inactive |

| Compound | Potency |
| --- | --- |
| CN1CCN(c2nc(-c3ccccn3)nc3ccccc23)CC1 | inconclusive [inhibitor, partial curve] |
| CCCc1ccc(C2C3=C(CC(C)(C)CC3=O)NC3=C2C(=O)c2ccccc23)cc1 (stereo unspecified) | inconclusive [inhibitor, partial curve] |
| CCOC(=O)N1CCC(NC(=O)c2cccc3c2C(=O)N(c2ccc(OC)cc2)C3)CC1 | inconclusive [inhibitor, single point] |
| CC(C)C1Nc2c(O)cc(Cl)c([N+](=O)[O-])c2C2C=CCC21 (stereo unspecified) | inconclusive [inhibitor, single point] |
| CC(O)CNc1nc2sc3c(c2c(=O)n1Cc1ccco1)CCCCC3 (stereo unspecified) | inactive |
| CCNc1ccc(S(=O)(=O)N(C)C)cc1NCC(=O)Nc1ccc(Br)cc1F | inconclusive [inhibitor, full curve, poor fit] |
| COc1ccc(NS(=O)(=O)c2ccc(OC)c(NC(=O)CCC3CCCC3)c2)cc1 | inconclusive [inhibitor, partial curve, poor fit] |
| COc1ccc(NC(=O)CCC2CCCCC2)cc1S(=O)(=O)N1CCCCC1 | inactive |
| Fc1ccccc1/C=N/NC(=S)Nc1ccc(Cl)cc1Cl | inactive |
| CC(=O)N/C(=C/c1ccc(OS(=O)(=O)c2ccc(C)cc2)cc1)C(=O)NCCCO | inactive |
| CC(C)N(CC#CCC1(O)c2ccccc2-c2ccccc21)CCO | inconclusive [activator, partial curve] |
| COC(=O)c1ccccc1NC(=O)c1noc2c1CCC2 | inconclusive [inhibitor, single point] |
| COc1ccc(-c2ccc3c(n2)CCCN3C[C@H](O)CN2CCCc3nc(C)c(C)cc32)cc1 | inconclusive [inhibitor, single point] |
| CC(C)CCNC(=O)c1cccc(C(=O)NCCC(C)C)c1 | inactive |
| CCOc1ccc(C2c3c(oc4ccccc4c3=O)C(=O)N2CCCN2CCOCC2)cc1 (stereo unspecified) | inactive |
| COc1cc(NS(=O)(=O)c2ccc([N+](=O)[O-])cc2)c2ncccc2c1 | inconclusive [inhibitor, single point] |
| Oc1ccc(N=C/C=C/c2ccc(Br)cc2)cc1-c1nc2ccccc2s1 | inconclusive [inhibitor, single point] |
| O=C(N1CCN(c2ccccc2F)CC1)C12CC3CC(CC(C3)C1)C2 | inactive |
| Cn1cccc1/C=N/NC(=O)CNc1ccc2ccccc2c1 | inconclusive [inhibitor, single point] |
| O=C(COC(=O)CNC(=O)c1ccc(-c2ccccc2)cc1)NCc1ccco1 | inconclusive [inhibitor, single point] |
| Clc1ccc(C[n+]2csc3ccccc32)cc1 | inconclusive [inhibitor, single point] |
| COc1cc(O)c(C(=O)O)c(-c2cc(O)c(O)cc2C)c1 | inconclusive [inhibitor, single point] |
| CC(=O)C1C(=O)c2c(cccc2[N+](=O)[O-])C1=Nc1cccc(Cl)c1 (stereo unspecified) | inconclusive [inhibitor, partial curve] |
| Cc1cc(-c2c(C)[nH]n(-c3ccccc3)c2=O)n[nH]1 | inconclusive [inhibitor, single point] |

| Compound | Potency |
| --- | --- |
| Cc1cc(O)c(C(C)C)cc1NS(=O)(=O)c1ccccc1 | inactive |
| CCOc1ccc(Nc2nc(Cl)nc(N3CCN(c4ccc(OC)cc4)CC3)n2)cc1 | inconclusive [inhibitor, partial curve] |
| N#Cc1c(N2CCCC2)nc(N)c2c(N)nc(N3CCCC3)cc12 | inconclusive [inhibitor, partial curve] |
| COCCN(CCOC)c1cc(C)c(C#N)c2nc3ccccc3n12 | inconclusive [inhibitor, single point] |
| O=C(COc1ccc(Cc2ccccc2)cc1)c1ccc(F)cc1 | inconclusive [activator, partial curve] |
| Oc1ccc(Cl)cc1C=Nc1ccc2c3c(cccc13)CC2 | inactive |
| O=C1C2CCCN2C(c2cccnc2)N1c1ccc(Cl)c(Cl)c1 (stereo unspecified) | inactive |
| CC1=NCCc2c1[nH]c1cc(O)ccc21 | inconclusive [inhibitor, full curve] |
| CN1CCN(CCCCOc2ccccc2-c2ccccc2)CC1 | inconclusive [inhibitor, single point] |
| CCCN(CCC)C1=N/C(=C\c2ccco2)C(=O)N1c1ccccc1 | inconclusive [inhibitor, single point] |
| O=C(NC(=S)Nc1ccc(CN2CCOCC2)cc1)c1ccc([N+](=O)[O-])cc1 | inactive |
| O=C(c1cc2ccccc2oc1=O)N1CCN(Cc2ccc3c(c2)OCO3)CC1 | inactive |
| COc1ccc(/C=N/NC(=O)CSc2nnc(C)n2-c2ccccc2)c(OC)c1OC | inactive |
| O=C(C1=C[C@H](c2csc3ccccc23)C[C@H](OCc2ccc(CO)cc2)O1)N1CCN(Cc2ccccc2)CC1 | inconclusive [inhibitor, partial curve] |
| Cc1ccc(NC(=S)N(CCCN2CCCC2)Cc2cccn2Cc2ccc(Cl)cc2)cc1C | inactive |
| O=C(COC(=O)c1ccccc1Nc1ccccc1F)c1ccccc1 | inconclusive [activator, partial curve] |
| Clc1ccc(OCCCCN2CCc3ccccc3C2)cc1 | inactive |
| CCOC(=O)N/N=C\c1ccc(OC(=O)c2ccco2)cc1 | inconclusive [inhibitor, single point] |
| CCOC(=O)C1=C(C)NC2=C(C(=O)c3ccccc32)C1c1ccc(O)cc1 (stereo unspecified) | inconclusive [inhibitor, partial curve] |
| CCCCN(c1ccccc1)S(=O)(=O)c1cccc2cccnc12 | inconclusive [activator, single point] |
| CS(=O)(=O)N1CCN(c2ccc([N+](=O)[O-])c(NCc3ccc(Cl)cc3)c2)CC1 | inconclusive [activator, partial curve] |
| CCn1c2ccccc2c2cc(NC(=O)c3ccccc3[N+](=O)[O-])ccc21 | inconclusive [inhibitor, partial curve] |
| CC1=C(C(=O)c2ccccc2)C(c2cccc([N+](=O)[O-])c2)NC(=S)N1 (stereo unspecified) | inactive |
